Results as given in the supplement of paper PMC11417369.
This is one part of the list.

Test system: PfSIP2 AP2 domain 1 (GST-tagged)
Assay: gcPBM binding intensity (ln(normalized median fluorescence intensity)); higher = stronger DNA binding
Summary of the method: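 Binding of GST-tagged P. falciparum DNA-binding domains, expressed in E. coli and used at about 25 μg on average, was carried out for 1 h in 1× PBS containing 1% milk, 0.2 mg/ml BSA, 0.5% salmon testes DNA and 0.03% Triton X-100. The target was an Agilent 4 × 180k array of primer-extended double-stranded 36-bp intergenic genomic probes plus negative controls, read with Alexa488 anti-GST antibody at 488 nm. Binding intensity is the highest Masliner-normalised natural-log median intensity across replicate spots of either probe orientation.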

Sequence	gcPBM binding intensity (ln)
AAAAAAAACAGACACACACACATACAAAATATATAT [CACACA_site1449]	7.13
TTTAAATACAGACATACACACATACACAGACATATA [CACACA_site4460]	6.97
CTCTATTGTTAAAAGGTGCTTTTATGATTTTATATA [GTGCAC_site9409]	8.67
ATATTTTTATGTACTTCAAAAAAAAAGAAAAACAAA [CACACA_negctrl_site970]	7.21
AAGAGGTTAATGAAATGTACACATATATATATATAT [XGTACX_site1861]	9.61
TATAGTTTTGAAAACAAACACACAAAAAAAAAAAAA [CACACA_site1691]	6.97
ATAATTTCACAAATAGTGCAAAAATTAGTAAGAATA [GTGCAC_site9648]	8.51
TTTTATAAATATTATACATGCATAATGATAAAAAAA [TGCATGCA_site927]	6.88
TATGTAACCTGTTTTACACACCCCCACCCCCCTCTT [CACACA_site319]	9.18
TATAAGTATTAATACACACACAAAATAATAAAAAAA [CACACA_site3481]	6.95
AAAAATAAAGGATATACACACTAATTCTATAAATAT [CACACA_site7344]	6.66
GTCTCGATAATGAAAAGTACAAAATAAAAATAATAA [XGTACX_site6471]	7.52
TAAAGAATAATACATTCACACAATATTATAAAAATA [CACACA_site5986]	6.82
TTGTATGAATTTATTTTTATTGATAATTAATATGTA [TGCATGCA_negctrl_site143]	6.88
TATGATTAATTACCACAATTGACAAAAAAAAAAAAA [CACACA_negctrl_site336]	6.83
GAAATGTCATATAATAGTACACACATGAAAATATAA [XGTACX_site6838]	7
ATACAAAAGGGGAATACACACACATATATATATATA [CACACA_site8694]	9.56
AATAAACATAGATGTACACACATATACAGATATATA [CACACA_site5570]	7.18
TTGTTCTATATATATGCATGCACGTATGTTAAATTA [TGCATGCA_site659]	9.51

Sequence	gcPBM binding intensity (ln)
TCTCATATATTGAATTGTACATATGTTAAAATATAG [XGTACX_site6764]	7.03
TATTAATTTTTATACGCATGTGTATAGTAATATATA [TGCATGCA_site1010]	6.81
TTTATTTATCTTTACGCACACACTTGCATGTACAAA [CACACA_site1118]	7.46
TACCTACCTTTACGGAGTACACAATAATAGTTATAA [XGTACX_site6593]	7.32
ATATAAAAATAATAGAGTACAAAAAAAAAATGTATA [XGTACX_site7054]	7.01
GATGATACGATTATCACACATTTATACTTTCTACAT [CACACA_site5669]	6.91
TGTATACATTATTAAGTGCAAGTAGGGAAAAAAAAA	8
TAAACATATACACGTACATGCAACGGATTTTTTTTT [TGCATGCA_site70]	7.09
CAAGAAAAGAAACACACACACATATATATATATATA [CACACA_site3881]	9.12
TTTTTACTATAAGGGGAAAAAAAAAAAAATAATATA [XGTACX_negctrl_site279]	6.62
ATATAACTTTTAAAAGCATGCAAATATTTACTCAAT [TGCATGCA_site396]	7.12
TATATATATATATGTGCACACATAATAAAAAAAAAA [CACACA_site3830]	9.64
ATATGATTAATTAAGTGTACGTATTTATAATTATAA [XGTACX_site5783]	7.13
ATTACAATTTTAATAGTGCATTTTTATATATTTCTA [GTGCAC_site9918]	9.55
GAAGACAATTATATGTGTACATATATATACATATAT [XGTACX_site4630]	7.2
AGTAGATATTATTATAGTACTTTTTATTTTATATTT [XGTACX_site1551]	6.87
GGAATTCATATTAATTGTACATTTAAAGATAGATGA [XGTACX_site3279]	6.99
AAAATTTATGGAAGGTGTACTGTTAATTATGTATAT [XGTACX_site6446]	6.96
ATATTAAAGATATATACACACATATTTATAAATATA [CACACA_site7127]	7.13

Sequence	gcPBM binding intensity (ln)
TAATATGTGGACTTTACACACTTGTTTTAAAATTCT [CACACA_site4605]	6.76
ATATTTTACATATTTGCACACATATATTTATATACA [CACACA_site855]	7.42
ATATATATATATATATGTACTTATTTATTTATTTAT [XGTACX_site4645]	9.22
TATAAAATTATTAAACAAGAAAATTTTAGGTAATAC [TGCATGCA_negctrl_site568]	7.03
ATAATATATTTTTGAACACACAATATATATATATAT [CACACA_site4124]	9.1
ATATAAATATGACACACACACAAAAAAAATAAAGAC [CACACA_site6208]	7.97
TATAATATATTTTGATGTACAAATATATTATATATA [XGTACX_site8633]	7.04
TTGATAAAACGTTATGCACACGTACGTGGGTATTTA [CACACA_site8445]	7.23
AGTATACACGAACACACACACACATATATAAATATA [CACACA_site6913]	7.04
TAAAGTATTACAACCACACACACACCCATATATTAT [CACACA_site4159]	7.09
TAAGTGTATGTATATAAACACACATACATATATATA [CACACA_site8397]	7.19
TAATTTAAAAATTCCTGTACTCAGTTTTTTCTATTT [XGTACX_site4961]	6.64
ATTTTTTTATACAATTTTATATATTAAATATTATAA [GTGCAC_negctrl_site86]	6.95
TGTATTTTTAACATATGTACGAATAGCACGTGTTAT [XGTACX_site3640]	7.14
TAAAAATGGGAGGGGTGTACTACACAATAAAATTAT [XGTACX_site5641]	7.88
TATTTTATATGATAGGTGCATTTTTTTTTTTTTTTT [GTGCAC_site9757]	10.8
ATTTTTTCAAAATGGAAAACTTATCAGTGAAAAAAA [CACACA_negctrl_site1087]	6.87
CTTGACCCCCTTTGTTGTACTGACATTTGTGAGCTT [XGTACX_site591]	7.34
